Data from PMC3510517.
Where two headings read alike, the source gives them in different places. These are yes or no findings as the source states them, for the method shown. Binding seen in cells or lysates may run through a third protein. Some results given as binding are weak or reduced against the parent protein; the word gives no strength. For some of these results: Tags and fused reporters may be left off the sequences shown. Blank lines part the entries; values can stand above or below the molecule they belong to.

Sequences of proteins named here, by UniProt entry; tags and fusion partners are left off.
UniProt O76216: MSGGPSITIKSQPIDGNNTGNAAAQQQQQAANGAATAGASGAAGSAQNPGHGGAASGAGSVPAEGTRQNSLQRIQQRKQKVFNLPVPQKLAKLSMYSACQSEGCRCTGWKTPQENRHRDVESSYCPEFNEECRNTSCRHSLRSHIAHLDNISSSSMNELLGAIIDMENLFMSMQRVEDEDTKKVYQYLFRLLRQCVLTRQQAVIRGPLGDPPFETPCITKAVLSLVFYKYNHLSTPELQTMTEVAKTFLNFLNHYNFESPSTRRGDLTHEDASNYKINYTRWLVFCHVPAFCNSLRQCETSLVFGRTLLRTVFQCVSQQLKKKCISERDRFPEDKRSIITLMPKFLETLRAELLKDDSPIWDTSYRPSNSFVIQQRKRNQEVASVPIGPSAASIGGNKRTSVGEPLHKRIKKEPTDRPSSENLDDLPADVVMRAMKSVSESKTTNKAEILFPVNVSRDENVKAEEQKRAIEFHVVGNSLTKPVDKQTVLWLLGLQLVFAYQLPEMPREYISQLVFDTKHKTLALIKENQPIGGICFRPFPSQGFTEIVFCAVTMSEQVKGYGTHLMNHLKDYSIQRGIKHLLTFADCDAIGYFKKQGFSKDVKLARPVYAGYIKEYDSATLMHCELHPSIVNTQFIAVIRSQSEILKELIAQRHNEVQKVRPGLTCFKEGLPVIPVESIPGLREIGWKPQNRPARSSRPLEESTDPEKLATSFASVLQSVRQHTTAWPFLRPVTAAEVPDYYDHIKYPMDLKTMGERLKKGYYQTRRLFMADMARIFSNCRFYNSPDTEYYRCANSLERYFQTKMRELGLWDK

Columns and labels:
[1] = molecular target: T1, Nonstop (Drosophila (endogenous in embryos)) (UniProt Q9VVR1); assay: co-IP; endogenous proteins from nuclear extract of Drosophila embryos; extract treated with DNase I and RNase before immunoprecipitation; affinity-purified rabbit antibodies, preimmune serum or IgG as control; western blot
T1 sequence: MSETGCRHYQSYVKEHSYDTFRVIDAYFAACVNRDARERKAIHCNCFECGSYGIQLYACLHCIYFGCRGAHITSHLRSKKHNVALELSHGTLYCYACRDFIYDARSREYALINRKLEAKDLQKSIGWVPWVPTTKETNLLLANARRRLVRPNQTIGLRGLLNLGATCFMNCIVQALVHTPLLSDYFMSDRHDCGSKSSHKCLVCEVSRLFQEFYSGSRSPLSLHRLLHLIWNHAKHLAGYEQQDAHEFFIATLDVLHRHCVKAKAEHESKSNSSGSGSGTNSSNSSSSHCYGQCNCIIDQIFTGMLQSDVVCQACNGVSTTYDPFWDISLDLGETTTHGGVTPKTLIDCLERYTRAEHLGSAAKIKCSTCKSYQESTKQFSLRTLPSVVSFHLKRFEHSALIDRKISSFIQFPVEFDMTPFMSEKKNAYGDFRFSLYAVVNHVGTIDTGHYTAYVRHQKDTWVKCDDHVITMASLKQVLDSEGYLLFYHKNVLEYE

[2] = molecular target: T2, Sgf11 (Drosophila (endogenous in embryos)) (UniProt Q9VVR6); assay: as above
T2 sequence: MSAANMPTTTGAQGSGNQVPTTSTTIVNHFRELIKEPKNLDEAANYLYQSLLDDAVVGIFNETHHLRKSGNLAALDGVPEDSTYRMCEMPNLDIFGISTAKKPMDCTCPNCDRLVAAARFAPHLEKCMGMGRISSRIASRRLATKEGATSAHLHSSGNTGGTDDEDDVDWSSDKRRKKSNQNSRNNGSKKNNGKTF

[3] = molecular target: T3, FLAG-tagged Sgf11 (Drosophila) (UniProt Q9VVR6); assay: co-IP; FLAG-tagged Sgf11 co-expressed with HA-tagged Cbp80 or HA-tagged Cbp20 in transiently transfected S2 cells; immunoprecipitation with anti-FLAG, anti-HA or IgG; western blot with anti-FLAG or anti-HA
T3 sequence: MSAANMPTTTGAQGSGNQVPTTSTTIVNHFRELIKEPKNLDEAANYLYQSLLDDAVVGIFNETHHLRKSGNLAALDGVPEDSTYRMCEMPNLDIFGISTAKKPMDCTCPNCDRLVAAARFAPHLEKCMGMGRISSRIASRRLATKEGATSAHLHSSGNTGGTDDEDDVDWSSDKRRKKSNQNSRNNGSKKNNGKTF

[4] = molecular target: T4, HA-tagged Cbp80 (Drosophila) (UniProt Q7K4N3); assay: as above
T4 sequence: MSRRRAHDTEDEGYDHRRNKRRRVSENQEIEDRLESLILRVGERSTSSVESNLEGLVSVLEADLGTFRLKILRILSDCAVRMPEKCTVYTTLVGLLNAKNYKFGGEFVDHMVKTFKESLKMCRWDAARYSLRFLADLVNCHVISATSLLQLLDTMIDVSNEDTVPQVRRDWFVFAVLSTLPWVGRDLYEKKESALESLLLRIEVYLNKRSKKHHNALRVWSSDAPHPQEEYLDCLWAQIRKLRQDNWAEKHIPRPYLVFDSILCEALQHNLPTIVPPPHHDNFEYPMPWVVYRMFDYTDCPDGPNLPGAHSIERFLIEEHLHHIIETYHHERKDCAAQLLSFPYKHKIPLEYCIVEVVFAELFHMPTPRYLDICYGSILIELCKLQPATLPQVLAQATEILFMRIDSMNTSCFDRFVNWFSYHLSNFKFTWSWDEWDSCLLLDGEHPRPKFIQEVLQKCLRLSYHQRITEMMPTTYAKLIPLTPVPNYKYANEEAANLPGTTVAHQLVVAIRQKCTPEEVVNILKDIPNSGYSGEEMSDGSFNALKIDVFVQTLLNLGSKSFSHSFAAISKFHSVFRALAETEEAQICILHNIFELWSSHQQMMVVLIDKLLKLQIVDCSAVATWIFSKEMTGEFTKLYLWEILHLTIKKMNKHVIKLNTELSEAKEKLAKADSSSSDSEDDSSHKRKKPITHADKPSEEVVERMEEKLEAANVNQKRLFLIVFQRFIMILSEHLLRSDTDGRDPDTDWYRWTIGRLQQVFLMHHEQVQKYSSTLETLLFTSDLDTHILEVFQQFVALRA

[5] = molecular target: T5, ENY2 (Drosophila (endogenous in embryos)) (UniProt Q9VYX1); assay: co-IP; low molecular weight Superose 6 fractions 28-31 of Drosophila embryonic nuclear extract (treated with DNase I and RNase); antibodies against Sgf11, Nonstop and ENY2 or preimmune serum; western blot
T5 sequence: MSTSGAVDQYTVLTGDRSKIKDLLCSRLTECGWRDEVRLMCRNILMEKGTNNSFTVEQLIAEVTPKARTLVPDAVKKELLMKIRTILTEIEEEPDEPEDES

[6] = molecular target: T1, Nonstop (Drosophila (endogenous in embryos)); assay: co-IP; endogenous proteins from nuclear extract of Drosophila embryos; extract treated with DNase I and RNase before immunoprecipitation; affinity-purified rabbit antibodies, preimmune serum or IgG as control; western blot; remark: listed apart in the source
[7] = molecular target: T2, Sgf11 (Drosophila (endogenous in embryos)); assay: as above; remark: listed apart in the source
[8] = molecular target: T2, Sgf11 (Drosophila (endogenous in embryos)); assay: co-IP; low molecular weight Superose 6 fractions 28-31 of Drosophila embryonic nuclear extract (treated with DNase I and RNase); antibodies against Sgf11, Nonstop and ENY2 or preimmune serum; western blot

Molecule: Gcn5 subunit of SAGA (from UniProt O76216 1-813)
binding [1]: binds | binding [2]: binds

B1: HA-tagged Cbp20 (protein, UniProt Q9V3L6 1-154)
chain: MFASVELSSYRDQHFKGSRSEQERSLRDSCTLYVGNLSFYTTEEQIHELFSRCGDVRVIVMGLDKYKKTPCGFCFVEYYVRSEAEAAMRFVNGTRLDDRLIRVDWDAGFVEGRQYGRGKTGGQVRDEYRTDYDAGRGGYGKLLSQKIAPNTDNR
binding [3]: no binding

B2: FLAG-tagged Sgf11 (protein, UniProt Q9VVR6 1-196)
chain: MSAANMPTTTGAQGSGNQVPTTSTTIVNHFRELIKEPKNLDEAANYLYQSLLDDAVVGIFNETHHLRKSGNLAALDGVPEDSTYRMCEMPNLDIFGISTAKKPMDCTCPNCDRLVAAARFAPHLEKCMGMGRISSRIASRRLATKEGATSAHLHSSGNTGGTDDEDDVDWSSDKRRKKSNQNSRNNGSKKNNGKTF
binding [4]: binds

B6: ENY2 (protein, UniProt Q9VYX1 1-101)
chain: MSTSGAVDQYTVLTGDRSKIKDLLCSRLTECGWRDEVRLMCRNILMEKGTNNSFTVEQLIAEVTPKARTLVPDAVKKELLMKIRTILTEIEEEPDEPEDES
binding [8]: binds | binding [7]: binds

More lines, now with the values ahead:

binding [5]: binds
B3: Sgf11 (protein, UniProt Q9VVR6 1-196)
chain: MSAANMPTTTGAQGSGNQVPTTSTTIVNHFRELIKEPKNLDEAANYLYQSLLDDAVVGIFNETHHLRKSGNLAALDGVPEDSTYRMCEMPNLDIFGISTAKKPMDCTCPNCDRLVAAARFAPHLEKCMGMGRISSRIASRRLATKEGATSAHLHSSGNTGGTDDEDDVDWSSDKRRKKSNQNSRNNGSKKNNGKTF

binding [3]: binds
B4: HA-tagged Cbp80 (protein, UniProt Q7K4N3 1-800)
chain: MSRRRAHDTEDEGYDHRRNKRRRVSENQEIEDRLESLILRVGERSTSSVESNLEGLVSVLEADLGTFRLKILRILSDCAVRMPEKCTVYTTLVGLLNAKNYKFGGEFVDHMVKTFKESLKMCRWDAARYSLRFLADLVNCHVISATSLLQLLDTMIDVSNEDTVPQVRRDWFVFAVLSTLPWVGRDLYEKKESALESLLLRIEVYLNKRSKKHHNALRVWSSDAPHPQEEYLDCLWAQIRKLRQDNWAEKHIPRPYLVFDSILCEALQHNLPTIVPPPHHDNFEYPMPWVVYRMFDYTDCPDGPNLPGAHSIERFLIEEHLHHIIETYHHERKDCAAQLLSFPYKHKIPLEYCIVEVVFAELFHMPTPRYLDICYGSILIELCKLQPATLPQVLAQATEILFMRIDSMNTSCFDRFVNWFSYHLSNFKFTWSWDEWDSCLLLDGEHPRPKFIQEVLQKCLRLSYHQRITEMMPTTYAKLIPLTPVPNYKYANEEAANLPGTTVAHQLVVAIRQKCTPEEVVNILKDIPNSGYSGEEMSDGSFNALKIDVFVQTLLNLGSKSFSHSFAAISKFHSVFRALAETEEAQICILHNIFELWSSHQQMMVVLIDKLLKLQIVDCSAVATWIFSKEMTGEFTKLYLWEILHLTIKKMNKHVIKLNTELSEAKEKLAKADSSSSDSEDDSSHKRKKPITHADKPSEEVVERMEEKLEAANVNQKRLFLIVFQRFIMILSEHLLRSDTDGRDPDTDWYRWTIGRLQQVFLMHHEQVQKYSSTLETLLFTSDLDTHILEVFQQFVALRA

binding [6]: no binding | binding [7]: binds
B5: Xmas-2 component of the mRNA export complex AMEX (protein, UniProt Q9U3V9-1 1-1370)
chain: MAEPRPGGYNYKTLLCRNIPELFLDKYVARSHFGRFGTLVNFVLRPRRMTCTVSYASEDEAARALLDGASFQGHLFDISYADNETAPAQKTEEWVDPDIQAELSALQSGWRNEYGSGKPIKKPQNGSSGSGGSSMLPAIPVGPATAPVSRDRTPAQLRDLENMMRRPAHTSEEKFSVLDARDKLLRLNRTQHKLSGATQGHCADMCPEKERVLREFQRQVAYYELQPGSDELICHERALKQYSRSSADQETPLPHELRNETALHMTMSYLMHEIMDISERQDPQSHMGDWFHFVWDRTRSIRKEITQQELCSLGAVKLVEQCARFHIHCAARLVDADPSVFDSKINAENLTKCLQTLKYMYHDLRIKGVPCPKEAEFRGYIVLLNLADANFLWDIGQLPAELQSCPEVRQAIQFYLALQDTNFVRFFQLLADKDTSYLSACILVNYFTRLRVLGLHRLIQAYRSPRKDEVSSLPLSYIAELLSFASEQEAADFVQHYGLQINEAGRVVLSRMHTVETEYKLPRQYELVEVKRVKSVGEVVSGEPLPPRDLYLNHRPHNSFDDYGMLKSIAWTAKDQLAGMQQEEMQPQMPSQPPAVSKHSDTLFKVPMQPDGTAAGFGVFAAAAVPPASSIDGFSFVLPKSRAQEFQEQAPATQQRRAQEEAKHQALQVAIAAAKKREAELMAIHEAKVAEAERVRQQKLRERQEQQRRQQQELEEQRQREQEKLQLEKERQLKLEQLFFVQQQEREAHKQTRTLELYQEIFQDTLAEICQSEFMSHSRACRSYESMLDSITRDLVERQMEQSIYELGVMRVCIRRWRKYRRTQQEKDTLFNQLPLSFGAENPEGVVNKRSMEDSLRLSRRYRLGEPCDYGKLLAGLEEHSWLKLDLWHVLDKCLPVAQPGARRFYKLLISLSGGQEGLQLNCDLDRGLLQQPQSPDARFVDGGYIRGFSQGIGLSVMKIRDDDHDWKATDLAEANGIICLIGLDDIRLLPDRLKPLLQASRCHDVAVIVQHPANTAFVQPDIPLQELCLRSFNIFRLRKSGNNRQRLMIALESAVKFLAKATERKRVGHLHQVETREYLLVNLGSELFRRLKYAAEHDTAIRSDTQLNPQRCVDLFNEAVHRLQLVAGEDLSDWPQFPEELRVFVQPLPIESSLNTNRLEHFEPGWHLPERRQRIVQLLERCKLPKMPVLPRSSSLAEAQCQWVLDYAQISQQEDCVEQIALQAIKILQYDTDDYLNFVEYLAGERMQYILRQERNPPQGIVYNTKTLKRRFLSAWYYEFREPQIYEPVPAEENAQMLEKQPSSQAEVQQLDFDEITSKAEAVLKRFHQRQDERHTLRELNRSHKSRKRRDASDHKHASKHKRKRSKSK
